Assay results taken from the supplement of paper PMC11876631.
± gives the standard deviation of the averaged measurements. Laboratory Escherichia coli strains with one amino-acid change in an essential protein, pooled on minimal glucose agar with carbenicillin or gentamicin at twice the control MIC (plus kanamycin and chloramphenicol for the plasmids), 48 h. Fold change of barcode share against drug-free plates; higher = less susceptible. Active = above 20 in both replicates (the paper's putatively resistant). '<' = one read or none on drug, '>' = one read or none on a drug-free plate. Shares are relative, so most strains fall below 1 when a few take over. Listed are strains with at least 15 reads on both drug-free plates, and hits; most hits rest on fewer reference reads. Replicate rank correlation about 0.5. Edits are read from barcodes.

Molecular target: Escherichia coli (laboratory strain)
Assay: barcode share on antibiotic plates over drug-free plates; higher = less susceptible
Method: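 A pool of E. coli strains, each edited to carry one amino-acid change in an essential protein, was grown for 48 h on minimal glucose agar with or without antibiotic; strain barcodes were sequenced; mean of two replicates.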

[1] = antibiotic: carbenicillin, 2× MIC (3.1 µg/mL)
[2] = antibiotic: gentamicin, 2× MIC (MIC 0.45 µg/mL)

Row | Protein | fold change of barcode share [1] | fold change of barcode share [2]
1 | ribF L91P (protein) MKLIRGIHNLSQAPQEGCVLTIGNFDGVHRGHRALLQGLQEEGRKRNLPVMVMLFEPQPLELFATDKAPARLTRLREKLRYLAECGVDYVPCVRFDRRFAALTAQNFISDLLVKHLRVKFLAVGDDFRFGAGREGDFLLLQKAGMEYGFDITSTQTFCEGGVRISSTAVRQALADDNLALAESLLGHPFAISGRVVHGDELGRTIGFPTANVPLRRQVSPVKGVYAVEVLGLGEKPLPGVANIGTRPTVAGIRQQLEVHLLDVAMDLYGRHIQVVLRKKIRNEQRFASLDELKAQIARDELTAREFFGLTKPA | 0.264 ± 0.066 | 0.00233 ± 0.0019
2 | ribF V93A (protein) MKLIRGIHNLSQAPQEGCVLTIGNFDGVHRGHRALLQGLQEEGRKRNLPVMVMLFEPQPLELFATDKAPARLTRLREKLRYLAECGVDYVLCARFDRRFAALTAQNFISDLLVKHLRVKFLAVGDDFRFGAGREGDFLLLQKAGMEYGFDITSTQTFCEGGVRISSTAVRQALADDNLALAESLLGHPFAISGRVVHGDELGRTIGFPTANVPLRRQVSPVKGVYAVEVLGLGEKPLPGVANIGTRPTVAGIRQQLEVHLLDVAMDLYGRHIQVVLRKKIRNEQRFASLDELKAQIARDELTAREFFGLTKPA | 0.411 ± 0.28 | 0.00537 ± 0.0031
3 | ribF V93W (protein) MKLIRGIHNLSQAPQEGCVLTIGNFDGVHRGHRALLQGLQEEGRKRNLPVMVMLFEPQPLELFATDKAPARLTRLREKLRYLAECGVDYVLCWRFDRRFAALTAQNFISDLLVKHLRVKFLAVGDDFRFGAGREGDFLLLQKAGMEYGFDITSTQTFCEGGVRISSTAVRQALADDNLALAESLLGHPFAISGRVVHGDELGRTIGFPTANVPLRRQVSPVKGVYAVEVLGLGEKPLPGVANIGTRPTVAGIRQQLEVHLLDVAMDLYGRHIQVVLRKKIRNEQRFASLDELKAQIARDELTAREFFGLTKPA | 0.503 ± 0.088 | 0.0054 ± 0.00071
4 | ribF V93Q (protein) MKLIRGIHNLSQAPQEGCVLTIGNFDGVHRGHRALLQGLQEEGRKRNLPVMVMLFEPQPLELFATDKAPARLTRLREKLRYLAECGVDYVLCQRFDRRFAALTAQNFISDLLVKHLRVKFLAVGDDFRFGAGREGDFLLLQKAGMEYGFDITSTQTFCEGGVRISSTAVRQALADDNLALAESLLGHPFAISGRVVHGDELGRTIGFPTANVPLRRQVSPVKGVYAVEVLGLGEKPLPGVANIGTRPTVAGIRQQLEVHLLDVAMDLYGRHIQVVLRKKIRNEQRFASLDELKAQIARDELTAREFFGLTKPA | 0.343 ± 0.03 | 0.00465 ± 0.0028
5 | ribF V93D (protein) MKLIRGIHNLSQAPQEGCVLTIGNFDGVHRGHRALLQGLQEEGRKRNLPVMVMLFEPQPLELFATDKAPARLTRLREKLRYLAECGVDYVLCDRFDRRFAALTAQNFISDLLVKHLRVKFLAVGDDFRFGAGREGDFLLLQKAGMEYGFDITSTQTFCEGGVRISSTAVRQALADDNLALAESLLGHPFAISGRVVHGDELGRTIGFPTANVPLRRQVSPVKGVYAVEVLGLGEKPLPGVANIGTRPTVAGIRQQLEVHLLDVAMDLYGRHIQVVLRKKIRNEQRFASLDELKAQIARDELTAREFFGLTKPA | 0.976 ± 0.22 | 5.28 ± 6.1
6 | ribF V93P (protein) MKLIRGIHNLSQAPQEGCVLTIGNFDGVHRGHRALLQGLQEEGRKRNLPVMVMLFEPQPLELFATDKAPARLTRLREKLRYLAECGVDYVLCPRFDRRFAALTAQNFISDLLVKHLRVKFLAVGDDFRFGAGREGDFLLLQKAGMEYGFDITSTQTFCEGGVRISSTAVRQALADDNLALAESLLGHPFAISGRVVHGDELGRTIGFPTANVPLRRQVSPVKGVYAVEVLGLGEKPLPGVANIGTRPTVAGIRQQLEVHLLDVAMDLYGRHIQVVLRKKIRNEQRFASLDELKAQIARDELTAREFFGLTKPA | 0.298 ± 0.013 | 0.00315 ± 0.0011
7 | rnpA F85W (protein) MVKLAFPRELRLLTPSQFTFVFQQPQRAGTPQITILGRLNSLGHPRIGLTVAKKNVRRAHERNRIKRLTRESFRLRQHELPAMDWVVVAKKGVADLDNRALSEALEKLWRRHCRLARGS | 0.264 ± 0.077 | 0.00699 ± 0.0036
8 | rnpA V87A (protein) MVKLAFPRELRLLTPSQFTFVFQQPQRAGTPQITILGRLNSLGHPRIGLTVAKKNVRRAHERNRIKRLTRESFRLRQHELPAMDFVAVAKKGVADLDNRALSEALEKLWRRHCRLARGS | 0.345 ± 0.078 | < 0.0123
